Hit rate of the full screen: of about 290,000 compounds, about 2,100 (0.72%) were called active. This list was built around the results that the source calls inconclusive (neither active nor inactive); the mix of calls is not that of the screen. Calls follow the shape of the dose curve; as a rule, active = well fitted inhibition curve with a large enough effect; inconclusive = small, poorly fitted or top-dose-only effect, or effect the other way; inactive = flat fitted curve, though single readings scatter. Where the call is inconclusive, the potency comes from a doubtful curve fit.
Biological target: Fructose-bisphosphate aldolase (Giardia intestinalis (strain ATCC 50803 / WB clone C6)) (UniProt A8B2U2)
Assay: qHTS Assay for Inhibitors of Fructose-1,6-bisphosphate Aldolase from Giardia Lamblia; also: nearly all actives have a fitted effect of over 55% in size
Conditions: purified Giardia FBPA; activity, negative = inhibition: at 59.6 µM (top of the series) unless noted
In short: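 40 nM FBPA preincubated 10 min at RT with compound (up to 57.5 uM final), then substrate plus GAPDH/TPI/NAD/arsenate coupling and diaphorase/resazurin added. Fluorescence read after 20 min at RT, 525/598 nm.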
% is scaled to controls: 0 for no effect and ±100 for the full control effect; potency is read from the fitted curve at half-maximal effect; tags tell the direction and shape of the fitted curve.

UniProt A8B2U2, sequence (A8B2U2 whole entry, looked up): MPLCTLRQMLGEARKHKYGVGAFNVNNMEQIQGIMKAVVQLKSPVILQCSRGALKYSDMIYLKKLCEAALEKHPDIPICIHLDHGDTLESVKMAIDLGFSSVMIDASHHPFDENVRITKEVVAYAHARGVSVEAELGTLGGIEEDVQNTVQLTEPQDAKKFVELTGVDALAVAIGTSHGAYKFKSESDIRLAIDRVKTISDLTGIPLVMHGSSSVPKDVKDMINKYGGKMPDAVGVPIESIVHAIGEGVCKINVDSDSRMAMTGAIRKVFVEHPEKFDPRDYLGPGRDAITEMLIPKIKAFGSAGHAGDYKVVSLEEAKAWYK

| SMILES | Potency | activity, negative = inhibition |
| --- | --- | --- |
| C=CCNC(=S)N1CCC(C(N)=O)CC1 | inconclusive: 15.8 µM [inhibitor, partial curve] | – |
| Nc1cccc(-c2nc3ccccc3[nH]2)c1 | – | inactive: 0.968% |
| O=C(NC1=NCCS1)c1cccs1 | – | inactive: 8.63% |
| O=C(CNCc1ccccc1Cl)Nc1ccc2c(c1)OCCO2 | inconclusive: 19.9 µM [inhibitor, partial curve] | – |
| CCCn1c2c(c(O)c(C(=O)Nc3ncccc3O)c1=O)CCCC2 | inconclusive: 31.5 µM [inhibitor, single point] | – |
| O=C(c1ccccc1F)c1cc2c(cc1[N+](=O)[O-])OCCO2 | inconclusive: 6.29 µM [inhibitor, partial curve] | – |
| C/C(CC(=O)Nc1ccc(F)cc1)=N\NC(=O)COc1ccccc1 | – | inactive: -2.79% |
| O=C(Nc1ccc(N2CCCC2)c(Cl)c1)c1cccc(-c2cc3ccccc3oc2=O)c1 | – | inactive: 0.378% |
| CC1(C)N=c2ccc([N+](=O)[O-])c(N)c2=[N+]1[O-] | inconclusive: 12.6 µM [inhibitor, partial curve] | – |
| CC1CCc2nc(NC(=O)C3CC3)sc2C1 (centres undefined) | – | inactive: 3.16% |
| COc1ccccc1C(=O)NC(CCSC)C(=O)NC1CCCCCC1 (centres undefined) | – | inactive: 2.19% |
| Cc1cccc(/C(N)=N/OC(=O)N2CCOCC2)c1 | – | inactive: -2.22% |
| Cc1nc(SC2CC(=O)N(c3ccccc3)C2=O)n[nH]1 (centres undefined) | inconclusive: 19.9 µM [inhibitor, partial curve] | – |
| O=C(c1ccccc1)c1ccc(OCC(O)CNCc2ccc(Cl)cc2)cc1 (centres undefined) | inconclusive: 25.1 µM [inhibitor, partial curve, poor fit] | – |
| O=C(CNC(=O)c1ccccc1F)OCc1csc(-c2ccccc2)n1 | – | inactive: -7.6% |
| CCOC(=O)CNC(=O)Cn1cnc2c(nnn2-c2ccc(F)cc2)c1=O | – | inactive: 12.2% |
| COC/C=C/C1=CC2=CC(=O)C(C)(OC(=O)c3cnc4ccccc4n3)C(=O)C2=CN1c1ccccc1 (centres undefined) | inconclusive: 15.8 µM [inhibitor, partial curve] | – |
| C[C@H](NC(=O)c1nc[nH]c1C(=O)N[C@H](C)c1ccccc1)C(=O)OCc1ccccc1 | inconclusive: 12.6 µM [inhibitor, partial curve] | – |
| CCC(NC(=O)c1cc(COc2ccc(F)cc2Cl)on1)c1ccncc1 (centres undefined) | – | inactive: 16% |
| O=C(/C=C/c1ccc(O)c(O)c1)NC(=O)c1ccccc1O | inconclusive: 8.91 µM [inhibitor, partial curve, poor fit] | – |
| CCN(CC)c1ccc(N=Cc2ccccc2[N+](=O)[O-])cc1 | inconclusive: 1.99 µM [inhibitor, full curve] | – |
| O=C(CSC1=Nc2ccccc2C2=NC(CC(=O)NCc3ccco3)C(=O)N12)NCC1CCCO1 (centres undefined) | inconclusive: 22.3 µM [inhibitor, single point] | – |
| COc1cc2c(cc1OC)C1(CCCC1)C(N)=C2C#N | inconclusive: 17.7 µM [inhibitor, partial curve] | – |
| Cn1nc(-c2ccc(OCC(=O)N3CCN(Cc4ccccc4)CC3)cc2)c2ccccc2c1=O | inactive | – |
| Cc1cccc(NC2=C(NCCO)C(=O)c3ccccc3C2=O)c1 | inconclusive: 12.6 µM [inhibitor, partial curve] | – |
| COc1ccc(S(=O)(=O)N2CCCC(C(=O)NCC3CCCO3)C2)cc1C (centres undefined) | – | inactive: -1.96% |
| O=c1oc2ccccc2cc1-c1nc2c(s1)CCc1ccccc1-2 | active: 7.92 µM | – |

| SMILES | Potency | activity, negative = inhibition |
| --- | --- | --- |
| CN(Cc1ccco1)c1ncncc1-c1cccnc1 | inconclusive: 15.8 µM [inhibitor, partial curve] | – |
| CNCCC=C1c2ccccc2CCc2ccccc21 | inactive | – |
| O=C(NNC(=O)C1CC=CCC1)c1ccccc1O (centres undefined) | inconclusive: 4.47 µM [inhibitor, full curve, poor fit] | – |
| CC(C)(C)NCC(O)c1ccccc1Cl (centres undefined) | inactive | – |
| O=C1C=C(O)c2c(O)cccc2C1=O | inconclusive: 6.29 µM [inhibitor, full curve] | – |
| CCOC(=O)CCNC(=O)CCc1nnc(CCCc2ccccc2)o1 | – | inactive: -6.9% |
| CC1CN(CCCCOc2ccc(C(C)C)cc2)CC(C)O1 (centres undefined) | inconclusive: 17.7 µM [inhibitor, single point] | – |
| O=C(Nc1nc2ccc(S(=O)(=O)N3CCCC3)cc2s1)c1ccccn1 | inconclusive: 3.97 µM [inhibitor, single point] | – |
| COc1ccc(-n2nc(C(=O)NCC(=O)N3CCN(c4ccccn4)CC3)c3ccccc3c2=O)cc1Cl | – | inactive: -4.31% |
| COc1cccc([C@@H]2Oc3ccc(OC)cc3C(=O)[C@H]2OC(=O)Nc2ccc(OC(F)F)cc2)c1 | – | inactive: -2.01% |
| CC(=O)c1ccc(N2CCN(S(=O)(=O)c3ccc4c5c3CC(=O)N5CC(C)S4)CC2)cc1 (centres undefined) | inconclusive: 7.94 µM [inhibitor, full curve, poor fit] | – |
| CCN1CCc2c(sc(NC(=O)C3CCCCC3)c2C(=O)OC)C1 | active: 17.8 µM | – |
| N#C/C(=C\c1ccccc1C(F)(F)F)C(=O)Nc1ccccc1 | – | inactive: 3.17% |
| CC(C)OC(=O)CNc1n[nH]c(=S)[nH]c1=O | active: 4.46 µM | – |
| Cc1ccc(SCc2cc(=O)n3ccsc3n2)c(C)c1 | – | inactive: -6.51% |
| COc1ccc(C2=NCC(CSc3nnnn3C)S2)cc1 (centres undefined) | inconclusive: 31.5 µM [inhibitor, single point] | – |
| COc1ccccc1N1CCN(c2ccc(-c3ccccc3)nn2)CC1 | – | inactive: 10.9% |
| CCC(=O)NNC(=S)NC(=O)c1ccc(C)cc1 | active: 17.7 µM | – |
| C/C(=C\C(=S)Nc1ccccc1)Nc1ccccc1 | inconclusive: 17.7 µM [inhibitor, single point] | – |
| Cc1ccc2nc(CCc3ccc(N)cc3)[nH]c2c1 | inconclusive: 20 µM [inhibitor, partial curve] | – |
| Cc1cc(C)nc(SCc2ccc(C(=O)N/N=C/c3cccc(O)c3O)cc2)n1 | inconclusive: 1.99 µM [inhibitor, full curve] | – |
| Cc1ccc(-c2ccc(C(=O)Nc3ccccc3)o2)c2ccccc12 | inconclusive: 19.9 µM [inhibitor, single point] | – |
| Cc1ccc(NC(=O)c2cc(C)n(-c3cccc(C)c3)c2C)cc1 | inconclusive: 15.8 µM [inhibitor, partial curve] | – |
| Cc1cc(C)nc(SCC(=O)N/N=C/c2cccn2-c2cccc(C(F)(F)F)c2)n1 | – | inactive: -2% |
| Cn1c(=O)cc(C(=O)N/N=C/c2ccc(F)cc2)[nH]c1=O | active: 15.8 µM | – |
| Nc1cc2c(cc1[N+](=O)[O-])OCO2 | inconclusive: 12.6 µM [inhibitor, partial curve] | – |
| Oc1ccc(N=Cc2sc3ccccc3c2Cl)cc1 | inconclusive: 7.06 µM [inhibitor, partial curve] | – |

| SMILES | Potency | activity, negative = inhibition |
| --- | --- | --- |
| COC(=O)c1ccc(N=C2S/C(=C\c3cc(C)n(-c4cccnc4)c3C)C(=O)N2C)cc1 | – | inactive: -7.03% |
| CCc1ccccc1OCCCN1CCCC1 | inconclusive: 28.2 µM [inhibitor, partial curve] | – |
| O=C(CCCCCNC(=O)c1ccccc1)N=Nc1c(O)[nH]c2c(Br)cc(Br)cc12 | – | inactive: -0.106% |
| Oc1ccc(/C=N/NC(=S)N/N=C/c2ccc(O)cc2)cc1 | – | inactive: 17% |
| NC(=S)N/N=C/c1ccc2ccccc2c1 | inconclusive: 15.8 µM [inhibitor, single point] | – |
| CCOc1cc(C=O)cc(N=Nc2cccc([N+](=O)[O-])c2)c1O | active: 12.6 µM | – |
| CCc1ccc(CN(C)CC(O)COc2cccc3ccccc23)cc1 (centres undefined) | inconclusive: 20 µM [inhibitor, partial curve] | – |
| CCOC(=O)c1sc2nc(NC(=O)COc3ccccc3)sc2c1C | – | inactive: 4.65% |
| O=C(CN1c2cccc3cccc(c23)S1(=O)=O)Nc1ccc(S(=O)(=O)N2CCOCC2)cc1 | inconclusive: 22.3 µM [inhibitor, single point] | – |
| CCN(CC(=O)Nc1ccc2c(c1)OCCO2)C(=O)/C=C/c1ccccc1 | – | inactive: 0.32% |
| NC(=O)NCCCC(=O)NCC(c1ccccc1Cl)c1c[nH]c2ccccc12 (centres undefined) | – | inactive: -7.07% |
| CC1CCCC(C)N1C(=O)COc1ccc(F)cc1 (centres undefined) | – | inactive: 8.16% |
| COc1cc(C(=O)NC(=S)Nc2ccccc2[N+](=O)[O-])cc(OC)c1OC | inconclusive: 15.8 µM [inhibitor, partial curve] | – |
| CCC(=O)c1ccccc1OCCN1CCN(Cc2ccccc2)CC1 | inconclusive: 12.6 µM [inhibitor, partial curve] | – |
| CC(C)N1CCN(Cc2ccoc2)CC1CCO (centres undefined) | – | inactive: -2.38% |
| Cc1noc(C)c1C(=O)Nc1ccc(F)cc1 | – | inactive: 2.48% |
| Cc1c2ccccc2nc2c(F)c(NCCO)c(F)c(F)c12 | inconclusive: 12.6 µM [inhibitor, partial curve] | – |
| COc1ccc(OC)c(C(=O)CSc2nnnn2C)c1 | – | inactive: -5.8% |
| COc1ccccc1N1C(=O)N(C(C)=O)C2C1Nc1ccccc1N2C (centres undefined) | inconclusive: 3.54 µM [inhibitor, full curve] | – |
| CCn1c(CNc2ccc(C(=O)O)cc2)nc2ccccc21 | inconclusive: 25.1 µM [inhibitor, partial curve] | – |
| Cc1ccnc2nc(C(=O)Nc3nc(-c4ccccn4)cs3)nn12 | active: 15.8 µM | – |
| O=C(NNC(=S)NCCCN1CCOCC1)c1ccncc1 | inconclusive: 19.9 µM [inhibitor, partial curve] | – |
| NS(=O)(=O)c1ccc(NC(=S)N2CCC(Cc3ccccc3)CC2)cc1 | inconclusive: 35.5 µM [inhibitor, single point] | – |
| COc1cc(CNC(C)c2ccccc2)cc(Br)c1OCc1ccc(F)cc1 (centres undefined) | inconclusive: 22.4 µM [inhibitor, partial curve] | – |
| O=C(N/N=C/c1cc2c3c(c1O)CCCN3CCC2)c1ccccc1O | inconclusive: 3.54 µM [inhibitor, full curve] | – |
